From the supplement of paper PMC9334596
Values joined by “and” are separate entries in the source; they are usually repeats but may differ in a detail not shown here. Identical values can stand only once. The full ranking holds about 5,300 compounds; the median of “PER2::LUC luminescence relative to vehicle control” is about 0.96, and the highest 2% start at about 1.3. This is one part of the list.

System: mPer2Luc MEF
Test: PER2::LUC luminescence relative to vehicle control (fold of vehicle); higher = higher PER2::LUC reporter signal
Conditions: 10 µM
Outline: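 Compounds from commercial libraries were added at 10 μM to 384-well plates seeded 48 h earlier with ~3000 mPer2Luc mouse embryonic fibroblasts per well. The cells were kept in DMEM with 10% FBS at 37 °C and 5% CO2. Luminescence was read with ONE-Glo 24 h and 30 h after treatment, then an alamarBlue viability assay was run. Values are PER2::LUC luminescence relative to vehicle control, as fold change.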

Row | Structure (SMILES) | PER2::LUC luminescence (time after treatment 24 h) | PER2::LUC luminescence (time after treatment 30 h)
1 | O=C(O)[C@H](Cc1ccc(Nc2nccc3ccncc23)cc1)NC1=C(Br)C(=O)C12CCCCC2 | 0.88 | 0.86
2 | CC(C)(C#N)c1ccc(N2C(=O)OCc3cnc4ccc(-c5cnc6ccccc6c5)cc4c32)cc1 | 0.705 | 0.655
3 | CN(C)c1ccc(C(c2ccc(N(C)C)cc2)c2cc([N+](=O)[O-])ccc2Cl)cc1 | 0.874 | 0.882
4 | C=C1C[C@H]2[C@@H]3C=C(C)C4=CC(=O)CC[C@]4(C)[C@H]3CC[C@]2(C)[C@@]1(OC(C)=O)C(C)=O | 0.564 | 0.916
5 | N[C@H]1C(O)O[C@H](CO)[C@@H](O)[C@@H]1O (stereo not given in full) | 0.953 and 0.831 | 1.02 and 0.963
6 | O=c1oc(Cl)c(Cl)c2ccccc12 | 0.911 | 1.03
7 | COc1ccc(-c2cc(=O)c3c(O)cc(O)cc3o2)cc1 | 1.41 | 1.56
8 | CC(=O)N[C@@H](CC(=O)N[C@@H](CCC(=O)O)C(=O)O)C(=O)O | 1.06 | 1
9 | c1ccc(C(NCCNC(c2ccccc2)c2ccccc2)c2ccccc2)cc1 | 0.763 | 0.922
10 | Cc1ccc(S(=O)(=O)NC(=O)NN2CC3CCCC3C2)cc1 (stereo not given) | 0.44 | 0.625
11 | CCC(C)C(C(=O)OCC[N+](C)(CC)CC)c1ccccc1 (stereo not given) | 0.922 | 1.06
12 | O=c1c(O)cccc2cc(O)c(O)c(O)c12 | 1.06 | 1.04
13 | O=c1cc(-c2ccccc2)oc2cc(O)c(O)cc12 | 1.41 | 1.47
14 | CCN(CC)CCOc1ccc(Cc2ccccc2)cc1 | 0.811 | 0.893
15 | Cc1cc(Cn2cnc3c2CC(C(=O)O)N(C(=O)C(c2ccccc2)c2ccccc2)C3)ccc1N(C)C (stereo not given) | 0.969 | 0.912
16 | NC(N)=NCCC[C@H](NC(=O)c1sccc1NS(=O)(=O)c1cccc2nsnc12)C(=O)O | 1.07 | 1.1
17 | O=c1c(O)c(-c2cc(O)c(O)c(O)c2)oc2cc(O)cc(O)c12 | 1.22 | 1.34
18 | Nc1nc(=O)c2[nH]c(=O)cnc2[nH]1 | 1.08 | 1.03
19 | N#CC(C#N)=C(N)/C(C#N)=C/c1ccc(O)cc1 | 0.999 | 1.13
20 | CCCCS(=O)(=O)N[C@@H](Cc1ccc(OCCCCC2CCNCC2)cc1)C(=O)O | 1.03 | 1.04
21 | O=C(Nc1cc(C(F)(F)F)ccc1N1CCCCC1)c1ccncc1 | 0.491 | 0.365
22 | NCCS(=O)(=O)O | 0.937 | 0.891

Row | Structure (SMILES) | PER2::LUC luminescence (time after treatment 24 h) | PER2::LUC luminescence (time after treatment 30 h)
23 | COc1cc2nc(N3CCN(C(=O)c4ccco4)CC3)nc(N)c2cc1OC | 0.855 and 0.841 | 0.875 and 0.845
24 | CCn1cc(C(=O)O)c(=O)c2cnc(N3CCNCC3)nc21 | 0.862 | 0.974
25 | Cc1ccc(NC(=O)c2ccc(CN3CCN(C)CC3)cc2)cc1Nc1nc(-c2cccnc2)cs1 | 0.401 | 0.398
26 | COc1nc(C)nc(Cl)c1NC1=NCCN1 | 1.13 and 0.865 | 0.842 and 0.844
27 | CCCC[C@@H](C=O)NC(=O)[C@H](CC(C)C)NC(=O)OCc1ccccc1 | 1.21 | 1.18
28 | O=C(CCCN1CC=C(n2c(=O)[nH]c3ccccc32)CC1)c1ccc(F)cc1 | 0.97 | 1.02
29 | Cc1ccc(CCCO)c(NCc2ccc3nc(NCCCN4CCOCC4)n(Cc4nc(C)ccc4O)c3c2)c1 | 0.711 | 0.678
30 | CCN(CC)CCNC(=O)c1cc(S(C)(=O)=O)ccc1OC | 0.984 | 0.88
31 | CCO[C@@H]1OC(=O)C[C@@H]1NC(=O)[C@@H]1CCCN1C(=O)[C@@H](NC(=O)c1ccc(N)c(Cl)c1)C(C)(C)C | 1.07 | 1.1
32 | Oc1c(I)cc(I)c2cccnc12 | 0.941 | 0.965
33 | C[C@@]1(F)[C@H](O)[C@@H](CO)O[C@H]1n1ccc(N)nc1=O | 1.1 | 1.1
34 | CN(C)c1ccc(C(=O)NCCCCCCC(=O)NO)cc1 | 0.893 | 0.924
35 | CC(=O)O[C@H]1CC[C@@]2(C)[C@H](CC[C@@H]3[C@@H]2CC[C@]2(C)[C@@H]4[C@H](C[C@@H]32)O[C@]2(CC[C@@H](C)CO2)[C@H]4C)C1 | 0.986 | 0.936
36 | C#CCN(C)Cc1ccccc1 | 0.93 and 0.871 | 0.955 and 0.95
37 | O=c1[nH]c2ccccc2c2ccccc12 | 1.19 | 0.972
38 | COc1ccc(-c2oc3c(CC=C(C)C)c(O[C@@H]4O[C@H](CO)[C@@H](O)[C@H](O)[C@H]4O)cc(O)c3c(=O)c2O[C@@H]2O[C@@H](C)[C@H](O)[C@@H](O)[C@H]2O)cc1 | 1.05 | 1.1
39 | C[C@H]1[C@@H](O)O[C@@H]2O[C@@]3(C)CC[C@H]4[C@H](C)CC[C@@H]1[C@@]24OO3 | 0.615 | 0.646
40 | O=C(O)/C=C/c1c[nH]c2ccccc12 | 1.01 | 1.02
41 | CCn1cc(C(=O)O)c(=O)c2ccc(C)nc21 | 0.874 | 0.809
42 | COc1ccc2cc(CCC(C)=O)ccc2c1 | 1.75 | 1.7
43 | O=C(O)CCC(=O)OC[C@@H](NC(=O)C(Cl)Cl)[C@H](O)c1ccc([N+](=O)[O-])cc1 | 0.955 | 0.963
44 | Cc1cccc(/C=C/c2ccccc2)n1 | 1.35 | 1.16

Row | Structure (SMILES) | PER2::LUC luminescence (time after treatment 24 h) | PER2::LUC luminescence (time after treatment 30 h)
45 | CCCCCC(C)N (stereo not given) | 1.02 and 0.857 | 1.04 and 0.798
46 | CCN(Cc1ccncc1)C(=O)C(CO)c1ccccc1 (stereo not given) | 1.04 | 1.05
47 | Cc1nc(Nc2ccc(F)cc2)nc(N2CCc3ccccc3C2C)c1C (stereo not given) | 0.906 | 0.868
48 | O=C(NCCNCC(O)COc1ccc(O)cc1)N1CCOCC1 (stereo not given) | 0.988 | 0.94
49 | N=C(N)c1ccccc1 | 1.03 | 0.98
50 | CC(=O)O/N=C1\C(=O)N(Cc2cc(Cl)ccc2Cl)c2ccc(Cl)cc21 | 1.08 | 1.08
51 | Cc1ncc([N+](=O)[O-])n1CCO | 1.26 | 0.959
52 | CCN(CC)CC#CCOC(=O)C(O)(c1ccccc1)C1CCCCC1 (stereo not given) | 1.02 and 0.831 | 0.799 and 0.895
53 | OC(CCN1CCCCC1)(c1ccccc1)C1CC2C=CC1C2 (stereo not given) | 0.9 and 0.774 and 0.685 | 0.906 and 0.687 and 0.665
54 | CC(C)CCC[C@@H](C)[C@H]1CC[C@H]2[C@@H]3CC=C4CC(=O)CC[C@]4(C)[C@H]3CC[C@]12C | 1.42 | 1.09
55 | CN1C2CCCC1CC(NC(=O)c1nn(C)c3ccccc13)C2 (stereo not given) | 0.865 | 0.969
56 | CC(C)N1CCN(c2ccc(OCC3COC(Cn4cncn4)(c4ccc(Cl)cc4Cl)O3)cc2)CC1 (stereo not given) | 0.8 | 0.809
57 | O=C(N/N=C/c1ccc(O)c(O)c1)c1cc2ccccc2cc1O | 0.794 | 1.04
58 | COc1ccc(SC(=O)N[C@@H](CCC(=O)O)C(=O)O)cc1 | 0.852 | 0.909
59 | N=C(N)SCc1ccc(CSC(=N)N)s1 | 1.01 and 0.976 | 1.01 and 0.977
60 | C=CC[C@@H]1/C=C(\C)C[C@H](C)C[C@H](OC)[C@H]2O[C@@](O)(C(=O)C(=O)N3CCCC[C@H]3C(=O)O[C@H](/C(C)=C/[C@@H]3CC[C@@H](O)[C@H](OC)C3)[C@H](C)[C@@H](O)CC1=O)[C@H](C)C[C@@H]2OC | 0.918 | 1.03
61 | CC(=O)OC1CCC23CC1(C)CCC2C(C)(C)CC3OC(C)=O (stereo not given) | 0.96 | 0.934
62 | COc1ccc2[nH]cc(CCNC(C)=O)c2c1 | 1.03 and 0.466 | 1.03 and 0.798
63 | CC(C)(C)[Si](C)(C)Oc1ccc2oc(=O)c3c(c2c1)CCCN3 | 1.14 | 1.15
64 | CCCCC/C=C\C[C@@H](O)/C=C/c1cccc(C[C@@H](O)CCCCO)n1 | 1.07 | 0.841
65 | NC[C@H]1O[C@H](O[C@H]2[C@H](O[C@@H]3O[C@H](CO)[C@@H](O)[C@H]3O)[C@@H](O)[C@H](N)C[C@@H]2N)[C@H](N)[C@@H](O)[C@@H]1O | 0.887 | 0.894
66 | O=Nc1c(-c2c(O)[nH]c3ccccc23)[nH]c2ccccc12 | 1.72 | 2.02

Row | Structure (SMILES) | PER2::LUC luminescence (time after treatment 24 h) | PER2::LUC luminescence (time after treatment 30 h)
67 | COCc1c(C(C)C)nc(C(C)C)c(/C=C/[C@@H](O)C[C@@H](O)CC(=O)O)c1-c1ccc(F)cc1 | 0.305 | 0.274
68 | Oc1nc2cc(Cl)c(Cl)cc2nc1O | 0.684 | 0.69
69 | COc1ccc(C(=O)NCc2cccnc2)cc1C(=O)NCc1cccnc1 | 0.916 | 0.901
70 | Cc1cc([N+](=O)[O-])ccc1NS(=O)(=O)c1cc(Cl)ccc1Cl | 0.955 and 0.797 | 0.774 and 0.762
71 | CC(C)c1cccc(C(C)C)c1N1C(=O)c2ccc(O)cc2C1=O | 1.11 | 1.08
72 | CC1(C)CCC[C@](C)([C@H]2CC[C@]3(C)[C@@H]2[C@H](O)C[C@@H]2[C@@]4(C)CC[C@H](O)C(C)(C)[C@@H]4CC[C@]23C)O1 | 1.02 | 1.02
73 | Nc1nc(=O)c2nc(CNc3ccc(C(=O)N[C@@H](CCC(=O)O)C(=O)O)cc3)cnc2[nH]1 | 0.904 | 0.734
74 | CC(=O)N[C@@H](CC(C)C)C(=O)O | 1.07 | 0.958
75 | O=C([O-])[C@H]1/C(=C/CO)O[C@@H]2CC(=O)N21.[Li+] | 1 | 0.949
76 | CC(C)(C)Sc1c(CC(C)(C)C(=O)O)n(Cc2ccc(Cl)cc2)c2ccc(OCc3ccc4ccccc4n3)cc12 | 1 | 0.992
77 | OCc1cc2c(cn1)[nH]c1ccccc12 | 0.851 | 0.873
78 | O=C(NCCS(=O)(=O)c1ccc(C(F)(F)F)cn1)c1ccc(Cl)cc1 | 1.04 | 1.06
79 | C=C1CC[C@H](O)C/C1=C/C=C1\CCC[C@]2(C)[C@@H]([C@H](C)CCCC(C)(C)O)CC[C@@H]12 | 0.892 and 0.798 | 0.882 and 0.845
80 | CC(C)CC(=O)Nc1n[nH]c2c1CN(C(=O)C1CCN(C)CC1)C2(C)C | 0.748 | 0.593
81 | COc1c2ccoc2nc2c(OC)c(OCC(O)C(C)(C)O)ccc12 (stereo not given) | 1.1 | 1.05
82 | CN1CCc2cc3c(cc2C(=O)Cc2ccc4c(c2C1)OCO4)OCO3 | 1.01 | 0.95
83 | CC(=O)N1c2ccc(-c3ccc(C(=O)O)cc3)cc2[C@H](Nc2ccc(Cl)cc2)C[C@@H]1C | 0.113 | 0.084
84 | Oc1ccccc1NCc1ccccn1 | 0.921 | 1.05
85 | CC[C@H]1OC(=O)[C@H](C)[C@@H](O[C@H]2C[C@@](C)(OC)[C@@H](O)[C@H](C)O2)[C@H](C)[C@@H](O[C@@H]2O[C@H](C)C[C@H](N(C)C)[C@H]2O)[C@](C)(O)C[C@@H](C)/C(=N\OCOCCOC)[C@H](C)[C@@H](O)[C@]1(C)O | 0.667 | 1.01
